Experimental data as given in PubChem BioAssay AID1508623 (National Center for Advancing Translational Sciences (NCATS), 2021).
About 450 (0.94%) of roughly 48,000 compounds were called active. Not shown: some 19% with an inconclusive outcome. Calls come from the whole dose curve; as a rule, active = well fitted inhibition curve with a large enough effect; inconclusive = small, poorly fitted or top-dose-only effect; inactive = no such curve, though single readings can be large or run the other way. Some of the results follow.

Assay: Primary qHTS for Identification of Small Molecule Inhibitors of Huntingtin Promoter Activity; note: nearly all actives have a fitted effect of over 50% in size
Settings: HEK293 HTT promoter firefly luciferase reporter (activity 0% = vehicle and -100% = no light), 24 h; series mostly up to 57.5 µM; activity change, negative = inhibition: at the top concentration
Outline: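 HEK293 luciferase promoter-reporter cells (2,500/well) plated 24 h, then compounds added at up to 57.5 uM final for 24 h at 37 °C. Firefly luminescence by Dual-Glo, normalized to vehicle (0%) and zero RLU (-100%).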

Activity change, negative = inhibition, inactive:
CN(Cc1ccco1)S(=O)(=O)c1nnc(NC(=O)c2ccccc2)s1 38.2%
Cc1cccc(-c2noc(-c3ccc(NCc4cccnc4)c([N+](=O)[O-])c3)n2)c1 21.8%
CCc1cccc(NC(=O)Cn2ccn3nc(-c4ccc(OC)c(OC)c4)cc3c2=O)c1 -18.7%
Cc1ccccc1NC(=O)Cn1cc(S(=O)(=O)N2CCCC2)c(S(=O)(=O)N2CCCC2)c1 13.8% [at 11.5 µM]
CN(C)CC(C)(C)CNc1nn2c(-c3ccccc3)nnc2cc1C1CCC1 -21.9%
CC1=C(C(=O)Nc2ccccc2)C(c2ccccn2)n2nc(SCc3ccccc3Cl)nc2N1 (stereo not given) -3.06%
CCOc1ccc(NC(=O)c2nnn(-c3ccc(F)c(Cl)c3)c2C)cc1 -9.69%
CCC(=O)Nc1cccc(OCc2cc(=O)n3cc(C)ccc3n2)c1 69.9%
COC(=O)c1ccc(Oc2nc3c(c(=O)n(C)c(=O)n3C)n2Cc2ccc(Cl)c(Cl)c2)cc1 -12.4%
COc1ccc(NC(=O)c2oc3ccccc3c2NC(=O)C23CC4CC(CC(C4)C2)C3)cc1 -15.4%
COc1ccc(S(=O)(=O)N(CC(=O)Nc2ccc3c(c2)OCO3)c2ccc(C)cc2)cc1 -18.4%
O=C(NCc1ccccc1Cl)c1ccc(NC(=O)N2CCSc3ccccc32)cc1 -21%
COc1cc(OC)cc(C(=O)Nc2ccc3c(c2)n(C)c(=O)c(=O)n3C)c1 0.346%
Cc1ccc(OCc2cc(=O)n3c4c(sc3n2)CCCC4)cc1C 0.0634%
Cn1cc(S(=O)(=O)N2CCCCC2)cc1C(=O)Nc1ccc(OC(F)(F)F)cc1 -23.1%
O=C(Cn1cc(S(=O)(=O)c2ccccc2)c(=O)c2cc3c(cc21)OCO3)Nc1ccccc1 -25.7%
Cc1ccc(S(=O)(=O)C(CNC(=O)c2ccc(C(F)(F)F)cc2)c2ccco2)cc1 (stereo not given) -24.5%
Cc1noc(-c2ccc(-c3noc(-c4cccc(Cl)c4)n3)cc2)n1 -7.3%
CCc1ccc2occ(CC(=O)Nc3sc4c(c3C(=O)NCCOC)CCCC4)c2c1 -30.4%
N=C(N)c1ccc(OCCCOc2ccc(C(=N)N)cc2)cc1 4.34%
Cc1nc2nc(SCC(=O)NC3CCC(C)CC3)nn2c(C)c1Cc1ccccc1Cl (stereo not given) 2.74%
Cc1nc2c(-c3ccccc3)c(C)nn2c(C)c1CCC(=O)NCc1ccccc1 -19.6%
Cc1ccc(S(=O)(=O)n2nc(-c3ccco3)nc2NCc2ccc(N(C)C)cc2)cc1 -0.106%
COc1ccc2c(c1)c(=O)c(S(=O)(=O)c1ccccc1)cn2CC(=O)Nc1ccc2c(c1)OCO2 -12.2%
CCCN(C(=O)Cn1ncc2c([nH]c3ccccc32)c1=O)c1ccc(F)cc1 -25.5%
CCOC(=O)C1CCCN(C(=O)c2ccc3c(c2)N(Cc2ccccc2F)C(=O)c2ccccc2S3=O)C1 (stereo not given) -5.54%
COc1ccc(CCNC(=O)CCn2c(=O)c3ccccc3n(CC(=O)Nc3cc(Cl)ccc3C)c2=O)cc1OC -9.75%
CC(=O)c1cccc(NC(=O)CCCSc2nc(-c3ccco3)cc(C(F)(F)F)n2)c1 -27.5%
COC(=O)C1C2CC3c4[nH]c5cc(OC)ccc5c4CCN3CC2CC(OC(=O)c2cc(OC)c(OC)c(OC)c2)C1OC (stereo not given) -6.59%
CCc1ccccc1NC(=O)Nc1cc(C(=O)NCc2ccccc2OC)ccc1N1CCCC1 -9.05%
CCOC(=O)C(C)(C)Oc1ccc(Cl)cc1
COc1ccc(NC(=O)CN2C(=O)C(c3ccc(C)cc3)=NC23CCCCCC3)cc1Cl -29.6%
CN(C)CCNC(=O)C(=O)NCC(c1cccnc1)N1CCN(c2ccccc2)CC1 (stereo not given) -15%
Cc1ccc(C)c(Cn2c(=O)n(-c3ccc(F)cc3)c(=O)c3sc4ccccc4c32)c1 -11%
CC(=O)N1CCc2cc(S(=O)(=O)NC(Cc3ccccc3)C(=O)Nc3ccc(C)cc3C)ccc21 (stereo not given) -22.8%
O=C(CSc1nc2ccsc2c(=O)n1Cc1ccccc1F)NCc1ccccc1Cl -24.7%
O=c1cc2nc(-c3ccccc3)nc(SCCOc3ccc(Cl)cc3)n2[nH]1 -13.4%
COc1ccc(C(=O)Nc2ccc3oc(-c4cc(Cl)ccc4Cl)nc3c2)cc1Br 5.73%
CCOC(=O)c1cnc2c(C)cc(C)cc2c1Nc1ccccc1OCC 1.41%
Cc1nn2c(-c3ccco3)ccnc2c1-c1ccc(Cl)cc1 26.9%
O=C1CCCc2c(O)cccc21 10.4%
COC(=O)c1c(NC(=O)/C=C/c2ccc(OC)cc2)sc2c1CCC2 9.52%
COc1ccc(CNC(=O)CSc2ncc3c(n2)-c2cc(Cl)ccc2N(C)S3(=O)=O)cc1 -20.9%
CC(C)c1cnc2c(c1SCC(=O)Nc1ccc(C(N)=O)cc1)c(=O)n(C)c(=O)n2C -1.39%
CCOC(=O)Cn1c(-c2cccs2)cc2cc(Cl)ccc21 -20.7%
Cc1ccc(NC(=O)Nc2cccs2)c(C)c1 -4.48%
O=C(Cn1c(=O)n(-c2ccccc2)c(=O)c2ccc(C(=O)NCc3ccc4c(c3)OCO4)cc21)Nc1ccc(F)c(Cl)c1 -20%
CN(CCCNC(=O)c1cc2c(=O)n(C)c3ccccc3c2s1)Cc1ccccc1 4.71%
COc1ccc(N(C(=O)c2cccc(C)c2)S(=O)(=O)c2ccc3c(c2)n(C)c(=O)n3C)cc1 0.939%
CCOC(=O)c1cc(OC(=O)c2ccccc2OC)n(-c2ccccc2)n1 -4.02%
COc1ccc(CCNC(=O)c2ccc3c(c2)N(Cc2cccc(Cl)c2)C(=O)c2ccccc2S3=O)cc1OC (stereo not given) -13.2%
O=C(c1ccccc1Br)N(Cc1ccccc1F)C1CCS(=O)(=O)C1 (stereo not given) 2.01%
CN1CCN(C(=O)c2ccc3c(c2)N(Cc2ccc(Cl)cc2)C(=O)c2ccccc2S3(=O)=O)CC1 -9.19%
Cc1cccc(CC(=O)NCCc2sc3nc(-c4ccc(F)cc4)nn3c2C)c1 -29.5%
COc1ccc(OCC(=O)N(Cc2ccc(C)o2)C2CCS(=O)(=O)C2)cc1 (stereo not given) -10.3%
CCOc1ccc(CCNC(=O)c2ccc(-c3nc(CSc4ccccc4)c(C)o3)cc2)cc1 -7.14%
CCc1ccc(N(CC)C(=O)c2sc3nc4n(c(=O)c3c2C)CCCC4)cc1 -21.6%
O=C(Cn1c(=O)ccc2cc(S(=O)(=O)N3CCCC3)ccc21)Nc1ccc(Cl)cc1 -25.7%
NS(=O)(=O)c1cc(-c2nn[nH]n2)c(NCc2cccs2)cc1Cl 13.5%
Cn1nnnc1SCCCNCc1ccccc1OCc1ccc(F)cc1 -32.7%
